# From the supplement of paper PMC12632987
# In all, about 4,500 sequences were measured (“median log2 fold change of GCK-ALFA target abundance (FLAG IP / Myc IP barcode read proportion)”: median about 0.078, lowest 2% from about -0.6 on). This is one part of the list.
# B1: GBRAP_184_5085 (protein)
# chain: KTLERLIEAETPEEAERKLREVMAEAGAAKAALTVLVDVKGLDVETAIRLLEIAGEEKKRLGIPDVTIGFTEAFTEEEIDRILKKADEAGVRVVLPIKEE
# B2: GBRAP_160_4069 (protein)
# chain: MEELEKLKKEIEEIFDEAIEMMKGQDHEERVTIARVMGGEVVLLLEEDPSVSEEAVEEADKIMDELVATIEANPDLTDEELEALIEEARDKVIEAIEKHT
# B3: GBRAP_128_3262 (protein)
# chain: MNEEIVKYALEVVEKIKNSNKEEAKKIADEFMEWLLNSSLEDAEQAVDVIESNLDKLTAEQLEILADAAREHRPKATPEKANLIAGLEVEALNEAEEKEE
# B4: GBRAP_128_3506 (protein)
# chain: STAAAVATVAALMAAIKTADPETARALAAQIVELLNSVDLETAEAMVDVILAALPELSKEHLEVLADTFREKRPEVSPEVANLLADIEVEALNEAEEKEE
# B5: GBRAP_11_2740 (protein)
# chain: KKEKLEEILKLAEELAKALQELIEKGVDNKELQKKAEELLKKLKEKVKELGDEDLIKLVEQIEEEWKKALEDPETKLEHLKNALATARVLAGQVELLIEE
# B6: GBRAP_184_5284 (protein)
# chain: EVRHVEIVAETAEEAIAQVRAAAEAARAAGAKLDLTLLLRDADVEGVKELLELLKELREEGVIERAVLGIENERTEEEIDELLEAADEAGVRVVLAISDE
# B7: GBRAP_96_7097 (protein)
# chain: ELEEARALVRALVAALDTDPERARALAEELLEFPVEVVTRALVEVVTDPEDARKIARLLLELGKEKAEEVLLEAAERAPGPLSKAIIDAMEEYEREQEEA
# B8: GBRAP_125_3094 (protein)
# chain: EEEALLAALRRLALALGFSEEEAEELAELAARSSLRQTLYALFAAEGYEELADLVEKLTEEQAREALLRLAAWLDAHPDASREEVVARAREIAEELLAAA
# Target: GABARAP, O95166
# Assay: median log2 fold change of GCK-ALFA target abundance (FLAG IP / Myc IP barcode read proportion) (log2 ratio); each designed protein is fused to an ALFA-tag nanobody in HEK293 cells to bring the named protein to FLAG-tagged glucokinase (GCK); Myc marks an untargeted standard; higher = target protein stabilised (more abundant)
# Settings: target protein: 3xFLAG-MCP-GCK-ALFA reporter; HEK293 landing pad (RPLP)
# How it was run: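 Sequencing of reverse-transcribed, amplified circular RNA barcodes from anti-FLAG and anti-Myc immunoprecipitates provided the readout for an ALFA-nanobody-fused binder library recombined into HEK293 landing-pad cells. Those cells were induced with 2 μg mL^−1 doxycycline, transfected with a plasmid expressing a FLAG-tagged target and a Myc-tagged standard, and lysed after 48 h. Target abundance is the per-binder median log2 ratio of FLAG to Myc barcode read proportions. Only barcodes at a proportion of ≥10^−7 in both replicates and binders with ≥3 barcodes per replicate were kept, with a 10^−6 pseudocount added before the two replicates were pooled.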
# Sequence of GABARAP, O95166 (O95166 whole entry, the tested form may be a part): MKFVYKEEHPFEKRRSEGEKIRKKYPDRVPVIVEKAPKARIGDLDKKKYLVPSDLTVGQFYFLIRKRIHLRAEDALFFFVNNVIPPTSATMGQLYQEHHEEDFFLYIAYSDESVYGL
row,Binder,median log2 fold change
1,B1,0.0379
2,B2,-0.202
3,B3,0.232
4,B4,0.226
5,B5,0.486
6,B6,0.0126
7,B7,0.253
8,B8,0.075
